Inconclusive results and toxic doses are left out. Some entries of the source have several records that differ or are many. This is not the full list of results. The source may hold further records. Values that stand side by side are repeated measurements (runs, samples, wells, individuals or studies).
System: L1210 leukemia ip in BDF1 mice, survival T/C
Assay: NCI In Vivo Anticancer Drug Screen. Data for tumor model L1210 Leukemia (intraperitoneal) in B6D2F1 (BDF1) mice
Details: endpoint: mean survival time, higher = longer survival

For `Nc1nc(=S)c2[nH]cnc2[nH]1`, the T/C (dose: 1.75 mg/kg/injection, schedule: Q07DX003 (ip), vehicle: saline) was 110 % of control and 152 % of control and the T/C (dose: 4.0 mg/kg/injection, schedule: Q01DX Z (oral), vehicle: saline) was 101 % of control and 152 % of control.
In the case of `CC(=O)OCC1OC(n2ncc(=O)[nH]c2=O)C(OC(C)=O)C1OC(C)=O` (stereo not given), the T/C (dose: 125.0 mg/kg/injection, schedule: Q01DX Z (im), vehicle: carboxymethylcellulose (CMC)) is reported as 108 % of control and 153 % of control and the T/C (dose: 250.0 mg/kg/injection, schedule: Q01DX Z (oral), vehicle: carboxymethylcellulose (CMC)) is reported as 96 % of control and 157 % of control.
For `COC(=O)c1[nH]c(=O)[nH]c(=O)c1F`, the T/C (dose: 11.0 mg/kg/injection, schedule: Q01DX Z (ip), vehicle: carboxymethylcellulose (CMC)) was 110 % of control and 172 % of control.
For `CS(=O)(=O)OCC(=O)NCCNC(=O)COS(C)(=O)=O`, the T/C (dose: 200.0 mg/kg/injection, schedule: Q01DX015 (ip), vehicle: saline) was 118 % of control and 155 % of control and the T/C (dose: 400.0 mg/kg/injection, schedule: Q01DX009 (ip), vehicle: saline) was 105 % of control and 160 % of control.
For `O=c1[nH]c(-c2ccccc2N=NN2CCCCC2)nc2ccccc12`, the T/C (dose: 100.0 mg/kg/injection, schedule: Q04DX002 (ip), vehicle: saline with Tween-80) was 95 % of control and 163 % of control.
In the case of `O=C1c2ccccc2-c2ccc(N3C(=O)c4ccccc4C3=O)cc21`, the T/C (dose: 25.0 mg/kg/injection, schedule: Q01DX001 (ip), vehicle: saline with Tween-80) is reported as 87 % of control and 163 % of control.
With `O=C1CN(CO)C(=O)CN1CO` the T/C (dose: 100.0 mg/kg/injection, schedule: Q01DX009 (ip), vehicle: saline) was 97 % of control and 170 % of control.

From PubChem BioAssay AID248 (DTP/NCI, 2004)
